Experimental data as given in PubChem BioAssay AID686971 (National Center for Advancing Translational Sciences (NCATS), 2013).
Hit rate of the full screen: of about 360,000 compounds, about 7,500 (2.1%) were called active. The inconclusive results got no clear call from the source; some entries with a clear call stand among them for comparison. Calls come from the whole dose curve; as a rule, active = well fitted cell-killing curve with a large enough effect; inconclusive = small, poorly fitted or top-dose-only effect, or effect the other way, or another doubt; inactive = no such curve, though single readings can be large or run the other way. Potencies of inconclusive entries are left out as doubtful fits.

Test: qHTS for induction of synthetic lethality in tumor cells producing 2HG: qHTS for the HT-1080-IDH1KD cell line;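 for activity, negative = toxicity: 0% = DMSO wells and -100% = cell-free medium wells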
Conditions: HT-1080 IDH1 knockdown viability, ATP luminescence, 48 h; activity, negative = toxicity: at 46.1 µM (top of the series) unless noted
Outline: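 Viability of IDH1-knockdown HT-1080 fibrosarcoma cells was assessed by CellTiter-Glo after 48 h at 37 °C with titrated compound; concentration-effect curves were classified by fit quality and response size.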
Potency is the fitted concentration of half-maximal effect; tags give direction and shape of the fitted curve.

Row | Compound | activity, negative = toxicity | Potency
1 | Cc1ccc2oc(Nc3nc(-c4ccccc4)cc(=O)[nH]3)nc2c1 | inconclusive: -30.1% [cytotoxic] | 
2 | COCCCn1c(O)c(/C=C2\N=C(C#N)C(=Nc3ccc(C)cc3)O2)sc1=S |  | inconclusive [cytotoxic, partial curve]
3 | O=C(COC(=O)c1cccc(S(=O)(=O)N2CCOCC2)c1)c1ccccc1 | inactive: -4.89% | 
4 | COc1cccc(/C=C/c2ccc3ccccc3n2)c1OC(C)=O |  | active: 11.6 µM
5 | O=c1c([N+](=O)[O-])cccn1Cc1ccc(F)cc1Cl |  | inconclusive [cytotoxic, partial curve]
6 | Cc1cc(C[n+]2cc(Br)ccc2N)c2ncccc2c1 |  | inconclusive [cytotoxic, single point]
7 | CCCCN(CCCC)CCNC(=O)CSCc1ccc(C)cc1 | inactive: -10.4% | 
8 | O=C(N1CCC(n2nc(-c3ccccc3)oc2=O)CC1)C1(c2ccc(Cl)cc2)CC1 | inactive: -1.52% | 
9 | CN1CCN(c2ccccc2NS(=O)(=O)c2ccc3c(c2)CCN3C(=O)C2CCC2)CC1 |  | inconclusive [cytotoxic, single point]
10 | CCC(C)NC(=O)Nc1ccc2c(c1)N(C)C(=O)c1ccccc1S2 (stereo not given) |  | inconclusive [cytotoxic, single point]
11 | Cn1ccnc1-c1nc2ccccc2[nH]c1=O |  | inconclusive [cytotoxic, single point]
12 | C=CCn1c(SCc2nc3ccccc3c(=O)[nH]2)nc2ccccc2c1=O |  | inconclusive [cytotoxic, partial curve]
13 | COc1ccccc1C1CCN(Cc2ccc(Cl)cc2Cl)CC1 | inactive: 10.5% | 
14 | Cc1cc(C(=O)OCC(=O)N2CCN(c3ccccc3)CC2)c2ccccc2n1 | inactive: 6.18% | 
15 | S=C(NCCC1=CCCCC1)NCc1ccco1 |  | inconclusive [cytotoxic, single point]
16 | COc1ccc(OC)c(NS(=O)(=O)c2ccc(N3CCCC3=O)cc2)c1 |  | active: 0.517 µM
17 | CNC(=O)Nc1ccccc1NC(=O)NC | inactive: -8.22% | 
18 | CCOC(=O)C1=C(C)NC2=C(C(=O)CC(C)(C)C2)C1c1coc2ccccc2c1=O (stereo not given) |  | inconclusive [cytotoxic, single point]
19 | O=C(NC1CC1)c1ccc2c(c1)N(Cc1ccc(Cl)cc1)CCS2 | inactive: -20% | 
20 | COc1ccc(C(=O)c2cc([N+](=O)[O-])ccc2N2CCOCC2)cc1 |  | active: 0.146 µM
21 | CC(=O)NC1=NN(C(C)=O)C(C)(c2cccs2)S1 (stereo not given) |  | active: 4.61 µM
22 | Nc1c(-c2ccc(Cl)cc2)cnc2c(-c3ccc(F)cc3)cnn12 | inactive: -1.64% | 
23 | O=C(CC1S/C(=N/N=C/c2ccco2)NC1=O)Nc1cccc(Cl)c1Cl (stereo not given) | inactive: 2.89% | 
24 | Cc1ccc(-c2[nH]nc3c2C(c2ccoc2)C(C#N)=C(N)O3)cc1C (stereo not given) |  | inconclusive [cytotoxic, single point]
25 | CCOC(=O)/C(C#N)=C/c1cn(CCOc2ccc(OC)cc2)c2ccccc12 | inactive: -2.94% | 

Row | Compound | activity, negative = toxicity | Potency
26 | CCOC(=O)c1cc(-c2cccc(O)c2)oc1C |  | inconclusive [cytotoxic, partial curve]
27 | CCCC(=O)N1CCC1(C)C(=O)NS(=O)(=O)c1ccc(OC)cc1 (stereo not given) | inactive: 29% | 
28 | CCCCCCCCN1C(=O)[C@H](CC(=O)NCC2CCCCC2)C[C@@]2(C(=O)OCC)CCC=C12 |  | inconclusive [cytotoxic, single point]
29 | CC(OC(=O)/C=C/c1ccco1)C(=O)NC1CCCCC1 (stereo not given) | inactive: 6.52% | 
30 | COc1ccccc1CC(=O)Nc1ccc(-c2nnc(-c3ccco3)o2)cc1 | inactive: -1.74% | 
31 | CCc1ccc(NC(=S)N(Cc2ccccc2)Cc2ccccn2)cc1 |  | inconclusive [cytotoxic, partial curve]
32 | CCOC(=O)C1(Cc2ccccc2C)CCCN(Cc2cn(C)nc2C)C1 (stereo not given) |  | inconclusive [cytotoxic, single point]
33 | CC(=O)c1c(C)[nH]c(C(=O)Nc2cccc(S(=O)(=O)N(C)c3ccccc3)c2)c1C |  | inconclusive [cytotoxic, single point]
34 | CC1CC1C(=O)OCC(=O)Nc1ccc(Cl)cn1 (stereo not given) | inactive: -0.203% | 
35 | CN(Cc1ccc(C(C)(C)C)cc1)C(=O)C1CCN(C(=O)Nc2ccccc2)CC1 | inactive: -24.1% | 
36 | Cc1ccc(S(=O)(=O)N2C(=O)CCC2C(N)=O)cc1 (stereo not given) | inactive: 0.716% | 
37 | CCOc1ccc(OCCOCCn2ccnc2)cc1 | inactive: 1.55% | 
38 | CN(CCNC(=O)c1c[nH]c2c1ccc1ccccc12)CCNC(=O)c1c[nH]c2c1ccc1ccccc12 |  | inconclusive [cytotoxic, single point]
39 | CC(Nc1nc(C(F)(F)F)nc2ccccc12)c1cccs1 (stereo not given) |  | active: 16.4 µM
40 | COc1cc(C(=O)/C=C/Nc2ccc(NC(C)=O)cc2)cc(OC)c1OC |  | active: 18.4 µM
41 | COc1ccc(NC(=O)C2CC(=O)n3ncnc3N2)cc1 (stereo not given) | inactive: -24.8% | 
42 | Cc1oc(-c2nc3ccccc3n2C)cc1C(=O)c1ccccc1 |  | inconclusive [cytotoxic, single point]
43 | CCOC(=O)N1CCN(C(=O)C2CCN(S(=O)(=O)N3CCCC3)CC2)CC1 |  | inconclusive [rising, single point]
44 | O=C(c1cc(=O)c2ccccc2o1)N1CCCc2ccccc21 | inactive: -3.39% | 
45 | Cc1ccc(CC(=O)NCc2ccc(F)cc2)cc1 |  | active: 7.31 µM
46 | Cc1ccc(N2CC(C(=O)N3CCC(C(=O)Nc4ccc(Br)cc4)CC3)CC2=O)cc1 (stereo not given) | inconclusive: -20% [cytotoxic] | 
47 | CCOC(=O)c1c(NC(NC(C)=O)C(Cl)(Cl)Cl)sc(C(C)=O)c1C (stereo not given) |  | inconclusive [cytotoxic, single point]
48 | CCOc1ccc(-c2cc(C(=O)Nc3ccc(C)c(NS(C)(=O)=O)c3)[nH]n2)c(C)c1 |  | inconclusive [cytotoxic, single point]
49 | CCOc1cccc2sc(NC(=O)CCS(=O)(=O)c3ccccc3)nc12 |  | inconclusive [cytotoxic, single point]
50 | Cc1c(C(=O)Nc2ccccc2)c2ccc(C(F)(F)F)cc2n1O |  | inconclusive [cytotoxic, single point]
